The whole screen tested about 150,000 compounds, of which about 540 (0.36%) showed an effect of 50% or more. The list shows a part of the results.

For orientation: % Inhibition means the change of the read-out against control, counted positive when it falls.

The assay deals with Plasmodium falciparum. The assay can be described thus: Primary screen in NF54 nanoGlo assay, in single point, at 2uM, 72h; a lower Z score goes with more inhibition. Format: functional, Erythrocyte. To be noted: timepoint 72 hour.
With `CC(C)N1C[C@@]2(CCCN(c3ccc(-c4ccccc4)nn3)C2)CCC1=O`, the “% Inhibition” value is -5% and the Z score came to 0.66.

`CN(C(=O)N[C@H]1CCC(C)(C)c2ccccc21)C1CC[S+]([O-])CC1` (stereo partly specified): the “% Inhibition” value is recorded as 7% and the Z score is on record as -0.95.

`CCOc1ccc(Cl)cc1CCNC(=O)[C@@H]1CNC(=O)O1`: the “% Inhibition” value is 1% and the Z score was -0.22.

As to `O=C(NCC(=O)N1CC(Oc2cccnc2)C1)OCc1ccccc1`, the “% Inhibition” value is -10% and the Z score is reported as 1.98.

For the compound `CCOc1ccc(C(=O)N[C@H]2CC[C@H](Oc3ncc(F)cn3)CC2)cn1`, the “% Inhibition” value is reported as -13% and the Z score is reported as 1.53.

Regarding `Cc1ccc(C(=O)N(C2CCOCC2)[C@H]2CCN(S(C)(=O)=O)C2)cc1C`, the “% Inhibition” value worked out at 28% and the Z score is given as -3.2.

Regarding `O=C(Cn1cccn1)N1CCC(c2ncc(C(F)(F)F)[nH]2)CC1`, the “% Inhibition” value is 7% and the Z score is listed as -1.33.

`COC(=O)c1csc(-n2nc(C(F)F)cc2-c2ccccc2)n1`: the “% Inhibition” value was found to be 7% and the Z score was -0.93.

Take `Oc1cc(CC[C@H]2CCCCN2)cc(-c2ncnc3sccc23)c1`: the “% Inhibition” value was determined as 2% and the Z score is -0.28.

`CCCn1cc(CN/C(=N\c2ccc(F)cc2)NC(=O)c2cccc(N(C)C)c2)c(C)n1`: the “% Inhibition” value is given as 8% and the Z score is given as -1.33.

Take `COc1ccccc1CN1CCC2(CCC(=O)N(Cc3cnc(C)cn3)C2)CC1`: the “% Inhibition” value is -2% and the Z score was determined as 0.23.

Consider `CC1(C)CC(C(=O)Oc2ccccc2)CC(C)(C)N1`, for which the “% Inhibition” value is on record as 42% and the Z score is -5.46.

For the compound `Nc1ccc(F)cc1OCCC(F)(F)F`, the “% Inhibition” value came to 3% and the Z score is listed as -0.49.

`C=CCNC(=O)C1(NC(=O)[C@H](C)n2cncn2)CCCCC1`: the “% Inhibition” value is -14% and the Z score is listed as 1.26.

Regarding `CC(=O)N1CCC[C@H](C(=O)N2CCc3cc(C(N)=O)n(C)c3C2)C1`, the “% Inhibition” value amounted to 6% and the Z score is reported as -1.04.

Turning to `Cc1ccc(=O)n(CN2CCc3c(Br)cccc3C2)n1`, the “% Inhibition” value is given as -10% and the Z score worked out at 1.42.

On to `Brc1ccccc1OCCN1CCc2[nH]ncc2C1`, for which the “% Inhibition” value is -1% and the Z score is recorded as 0.11.

Turning to `Cc1ncncc1C(=O)NCCc1cccc(Br)c1C`, the “% Inhibition” value was -20% and the Z score turned out to be 2.73.

Take `COC(=O)c1[nH]nc(C2CC2)c1Cl`: the “% Inhibition” value is recorded as -1% and the Z score was determined as 0.16.

`Cc1ccccc1C(CN1CCOCC1)NC1CC(C)OC(C)C1` (stereo unspecified): the “% Inhibition” value was -10% and the Z score was 1.03.

For `CC1CN(C(=O)C2CCN(CC3CCC=CO3)CC2)CC(C)O1` (stereo unspecified), the “% Inhibition” value is reported as -4% and the Z score is on record as 0.4.

Consider `O=C(Cn1nc(-c2ccccc2)c2cnc3ccccc3c21)Nc1cccc(F)c1`, for which the “% Inhibition” value was -25% and the Z score is 2.24.

For `C=CCC[C@@H](CN(C)Cc1cccnc1)Oc1cnccn1`, the “% Inhibition” value is listed as -6% and the Z score came out at 1.16.

Turning to `OC1(CN2CCC(Nc3ncncc3Br)CC2)CCCCC1`, the “% Inhibition” value was -6% and the Z score is 1.05.

As for `CCNC(=O)[C@H]1CCN(C(=O)c2ccc(-c3ccc4c(c3)CCO4)cc2)C1`, the “% Inhibition” value was -15% and the Z score is 2.64.

As for `O=C1CNC(=O)N1CCNc1snc2ccccc12`, the “% Inhibition” value was -6% and the Z score is recorded as 0.72.

On to `c1ccc(-c2cncnc2N2CC(c3ncc(C4CC4)cn3)C2)cc1`, for which the “% Inhibition” value is reported as -9% and the Z score amounted to 1.44.

As for `COc1ccc(CNC(=O)Cn2c(=O)c(-c3noc(C)n3)c3n(c2=O)CCCC3)cc1`, the “% Inhibition” value worked out at 5% and the Z score is listed as -0.66.

As to `CCCOc1ccccc1[C@H](C)N1CC2(CCNCC2)CCC1=O`, the “% Inhibition” value is -2% and the Z score came out at 0.23.

In the case of `CC(C)N(C)S(=O)(=O)N1CCC[C@H]1c1nnc2ccccn12`, the “% Inhibition” value was determined as 1% and the Z score is given as -0.19.

With `Cc1ccc(-c2cnc(C3CC3)o2)cc1S(=O)(=O)N1CCCc2ccccc21`, the “% Inhibition” value came to 5% and the Z score is on record as -0.92.

For the compound `O=C(NC[C@H](O)COCC1CC1)c1cc(F)c(F)c(F)c1`, the “% Inhibition” value is -5% and the Z score worked out at 0.7.

For the compound `O=C1CCCCCN1Cc1ccccc1C(F)(F)F`, the “% Inhibition” value is listed as 7% and the Z score is reported as -1.15.

For `O=C(CCc1nc(C2CC2)no1)OCCOc1ccc(Cl)cc1`, the “% Inhibition” value came to 0% and the Z score is -0.06.

Regarding `CC(=O)Nc1ccc(NC(=O)C(=O)NCCCN2CCCC2=O)cc1`, the “% Inhibition” value was -18% and the Z score came out at 2.83.

`C[C@H](Oc1ccc(Cl)cc1)C(=O)n1nnc2ccccc21`: the “% Inhibition” value is -2% and the Z score is on record as 0.25.

As for `CC(C)C1CC(CC(=O)N2CCOC(C(C)O)C2)CCO1` (stereo unspecified), the “% Inhibition” value is reported as -13% and the Z score is 2.28.

As to `O=C(CCC(=O)N1CCC[C@H]1c1nc(C2CC2)no1)Nc1ccccc1`, the “% Inhibition” value is given as -14% and the Z score is on record as 2.46.

Take `COc1ccccc1[C@@H]1NC(=O)CN(C)C1=O`: the “% Inhibition” value was 13% and the Z score is reported as -1.7.

On to `CCc1nc(CCNS(=O)(=O)c2c(Br)cc(F)cc2Br)sc1C`, for which the “% Inhibition” value is -11% and the Z score is on record as 1.69.

Regarding `Cc1nn(C)c(C)c1CCC(=O)N1CCc2c(cccc2N2CCOC2=O)C1`, the “% Inhibition” value is listed as -8% and the Z score was determined as 1.34.

As for `Cc1ccc(Nc2ccccc2NS(=O)(=O)c2ccc(S(=O)(=O)C(F)F)cc2)cc1`, the “% Inhibition” value is -5% and the Z score was 0.85.

Turning to `C[C@@H](C(=O)N(CCC#N)c1ccccc1)n1ccnn1`, the “% Inhibition” value is reported as -2% and the Z score was determined as 0.3.

The values are drawn from ChEMBL document CHEMBL4888484, “Replenishing the malaria drug discovery pipeline: Screening and hit evaluation of the MMV Hit Generation Library 1 (HGL1) against asexual blood stage Plasmodium falciparum ,using a nano luciferase reporter read-out” (2022).
